Results reported in PMC9911399, “Two distinct binding modes provide the RNA-binding protein RbFox with extraordinary sequence specificity”.
Numbering of substitutions follows the chain as printed; changes in the protein carry UniProt numbers. This is one part of the list.

T1: RBFOX1 RRM (Homo sapiens, UniProt Q9NWB1 109-208)
T1 sequence: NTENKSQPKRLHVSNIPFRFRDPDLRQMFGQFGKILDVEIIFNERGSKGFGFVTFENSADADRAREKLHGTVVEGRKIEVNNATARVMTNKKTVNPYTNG

B1: CACGAGA (DNA:RNA)
RNA: GGGAGACCGGAAUUCAGAUUGUCCCACGAGAUUAAAUCCCGUCGUAGCCACCA
DNA 1: CAATCTGAATTCCGGTCTCCC
DNA 2: TGGTGGCTACGACGGGATT
B2: GCGGGAC (DNA:RNA)
RNA: B1 RNA with C25G, A26C, C27G, A29G, G30A, A31C
DNA 1: CAATCTGAATTCCGGTCTCCC
DNA 2: TGGTGGCTACGACGGGATT
B3: CAAGUCU (DNA:RNA)
RNA: B1 RNA with C27A, A29U, G30C, A31U
DNA 1: CAATCTGAATTCCGGTCTCCC
DNA 2: TGGTGGCTACGACGGGATT
B4: CAGCCUA (DNA:RNA)
RNA: B1 RNA with C27G, G28C, A29C, G30U
DNA 1: CAATCTGAATTCCGGTCTCCC
DNA 2: TGGTGGCTACGACGGGATT
B5: UGCACGU (DNA:RNA)
RNA: B1 RNA with C25U, A26G, G28A, A29C, A31U
DNA 1: CAATCTGAATTCCGGTCTCCC
DNA 2: TGGTGGCTACGACGGGATT
B6: GAGCGAC (DNA:RNA)
RNA: B1 RNA with C25G, C27G, G28C, A29G, G30A, A31C
DNA 1: CAATCTGAATTCCGGTCTCCC
DNA 2: TGGTGGCTACGACGGGATT
B7: CGACGCG (DNA:RNA)
RNA: B1 RNA with A26G, C27A, G28C, A29G, G30C, A31G
DNA 1: CAATCTGAATTCCGGTCTCCC
DNA 2: TGGTGGCTACGACGGGATT
B8: AUCCUGG (DNA:RNA)
RNA: B1 RNA with C25A, A26U, G28C, A29U, A31G
DNA 1: CAATCTGAATTCCGGTCTCCC
DNA 2: TGGTGGCTACGACGGGATT
B9: CGUGCGA (DNA:RNA)
RNA: B1 RNA with A26G, C27U, A29C
DNA 1: CAATCTGAATTCCGGTCTCCC
DNA 2: TGGTGGCTACGACGGGATT
B10: UCAAGUG (DNA:RNA)
RNA: GGGAGACCGGAAUUCAGAUUGUCCUCAAGUGUUAAAUCCCGUCGUAGCCACCA
DNA 1: CAATCTGAATTCCGGTCTCCC
DNA 2: TGGTGGCTACGACGGGATT
B11: CUUGCCG (DNA:RNA)
RNA: B1 RNA with A26U, C27U, A29C, G30C, A31G
DNA 1: CAATCTGAATTCCGGTCTCCC
DNA 2: TGGTGGCTACGACGGGATT
B12: UUUGAAG (DNA:RNA)
RNA: B1 RNA with C25U, A26U, C27U, G30A, A31G
DNA 1: CAATCTGAATTCCGGTCTCCC
DNA 2: TGGTGGCTACGACGGGATT
B13: CAGUAUG (DNA:RNA)
RNA: B1 RNA with C27G, G28U, G30U, A31G
DNA 1: CAATCTGAATTCCGGTCTCCC
DNA 2: TGGTGGCTACGACGGGATT
B14: UUGACCA (DNA:RNA)
RNA: B10 RNA with C26U, A27G, G29C, U30C, G31A
DNA 1: CAATCTGAATTCCGGTCTCCC
DNA 2: TGGTGGCTACGACGGGATT
B15: GACAUUA (DNA:RNA)
RNA: B1 RNA with C25G, G28A, A29U, G30U
DNA 1: CAATCTGAATTCCGGTCTCCC
DNA 2: TGGTGGCTACGACGGGATT
B16: AUCUCGU (DNA:RNA)
RNA: B1 RNA with C25A, A26U, G28U, A29C, A31U
DNA 1: CAATCTGAATTCCGGTCTCCC
DNA 2: TGGTGGCTACGACGGGATT
B17: UCAUCCG (DNA:RNA)
RNA: B10 RNA with A28U, G29C, U30C
DNA 1: CAATCTGAATTCCGGTCTCCC
DNA 2: TGGTGGCTACGACGGGATT
B18: UUAUCCC (DNA:RNA)
RNA: B10 RNA with C26U, A28U, G29C, U30C, G31C
DNA 1: CAATCTGAATTCCGGTCTCCC
DNA 2: TGGTGGCTACGACGGGATT
B19: UGCGAGG (DNA:RNA)
RNA: B1 RNA with C25U, A26G, A31G
DNA 1: CAATCTGAATTCCGGTCTCCC
DNA 2: TGGTGGCTACGACGGGATT
B20: UCAGUAA (DNA:RNA)
RNA: B10 RNA with A28G, G29U, U30A, G31A
DNA 1: CAATCTGAATTCCGGTCTCCC
DNA 2: TGGTGGCTACGACGGGATT
B21: GGGGGGU (DNA:RNA)
RNA: B1 RNA with C25G, A26G, C27G, A29G, A31U
DNA 1: CAATCTGAATTCCGGTCTCCC
DNA 2: TGGTGGCTACGACGGGATT
B22: CGGGUAC (DNA:RNA)
RNA: B1 RNA with A26G, C27G, A29U, G30A, A31C
DNA 1: CAATCTGAATTCCGGTCTCCC
DNA 2: TGGTGGCTACGACGGGATT
B23: UCCAGUU (DNA:RNA)
RNA: B10 RNA with A27C, G31U
DNA 1: CAATCTGAATTCCGGTCTCCC
DNA 2: TGGTGGCTACGACGGGATT
B24: UAGAGAU (DNA:RNA)
RNA: B10 RNA with C26A, A27G, U30A, G31U
DNA 1: CAATCTGAATTCCGGTCTCCC
DNA 2: TGGTGGCTACGACGGGATT
B25: GGGCCAC (DNA:RNA)
RNA: GGGAGACCGGAAUUCAGAUUGUCCGGGCCACUUAAAUCCCGUCGUAGCCACCA
DNA 1: CAATCTGAATTCCGGTCTCCC
DNA 2: TGGTGGCTACGACGGGATT
B26: GGAUUAA (DNA:RNA)
RNA: B25 RNA with G27A, C28U, C29U, C31A
DNA 1: CAATCTGAATTCCGGTCTCCC
DNA 2: TGGTGGCTACGACGGGATT
B27: UUGUAAA (DNA:RNA)
RNA: B1 RNA with C25U, A26U, C27G, G28U, G30A
DNA 1: CAATCTGAATTCCGGTCTCCC
DNA 2: TGGTGGCTACGACGGGATT
B28: GCGAACA (DNA:RNA)
RNA: B1 RNA with C25G, A26C, C27G, G28A, G30C
DNA 1: CAATCTGAATTCCGGTCTCCC
DNA 2: TGGTGGCTACGACGGGATT
B29: UCAGUUA (DNA:RNA)
RNA: B10 RNA with A28G, G29U, G31A
DNA 1: CAATCTGAATTCCGGTCTCCC
DNA 2: TGGTGGCTACGACGGGATT
B30: CUCAUUC (DNA:RNA)
RNA: B1 RNA with A26U, G28A, A29U, G30U, A31C
DNA 1: CAATCTGAATTCCGGTCTCCC
DNA 2: TGGTGGCTACGACGGGATT
B31: UGGGUUG (DNA:RNA)
RNA: B10 RNA with C26G, A27G, A28G, G29U
DNA 1: CAATCTGAATTCCGGTCTCCC
DNA 2: TGGTGGCTACGACGGGATT

The binders below were run against T1, RBFOX1 RRM (assay: EMSA; HiTS-Eq, 1 nM pool, 10 min; buffer printed only for the single-RNA assays: 10 mM Tris pH 7.5, 150 mM NaCl, 3.4 mM EDTA, 0.001% NP-40, 30 C). Settings: tags: His6 N-terminal (pET28a); label: 5' 32P.
How it was run: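 Relative association constants, normalised to the cognate motif, were derived by comparing read counts of each RNA species with those of the control reaction. The RNA sequenced was the free fraction, separated by 8% native PAGE after a 10 min equilibration in 50 µL of 1 nM 5′-radiolabelled RNA (7 randomized nucleotides) with increasing concentrations of purified wild-type or mutant RbFox RRM.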
In the case of B1, the binding signal is reported as 0.0065 KA relative to UGCAUGU. B2 was tested, and the binding signal was 0.021 KA relative to UGCAUGU. B3 was tested, and the binding signal was 0.00314 KA relative to UGCAUGU. In the case of B4, the binding signal is reported as 0.00229 KA relative to UGCAUGU. In the case of B5, the binding signal is reported as 0.514 KA relative to UGCAUGU. With B6 the binding signal was 0.00578 KA relative to UGCAUGU. B7 was tested, and the binding signal was 0.0108 KA relative to UGCAUGU. B8 was tested, and the binding signal was 0.00785 KA relative to UGCAUGU. With B9 the binding signal was 0.0172 KA relative to UGCAUGU. With B10 the binding signal was 0.0132 KA relative to UGCAUGU. B11 was tested, and the binding signal was 0.0116 KA relative to UGCAUGU. B12 was tested, and the binding signal was 0.0216 KA relative to UGCAUGU. In the case of B13, the binding signal is reported as 0.0141 KA relative to UGCAUGU. B14 was tested, and the binding signal was 0.00878 KA relative to UGCAUGU. With B15 the binding signal was 0.00307 KA relative to UGCAUGU. In the case of B16, the binding signal is reported as 0.00816 KA relative to UGCAUGU. With B17 the binding signal was 0.00501 KA relative to UGCAUGU. For B18, the binding signal was 0.0026 KA relative to UGCAUGU. With B19 the binding signal was 0.0231 KA relative to UGCAUGU. With B20 the binding signal was 0.00434 KA relative to UGCAUGU. B21 was tested, and the binding signal was 0.0254 KA relative to UGCAUGU. For B22, the binding signal was 0.0309 KA relative to UGCAUGU. B23 was tested, and the binding signal was 0.00643 KA relative to UGCAUGU. B24 was tested, and the binding signal was 0.00724 KA relative to UGCAUGU. For B25, the binding signal was 0.00639 KA relative to UGCAUGU. In the case of B26, the binding signal is reported as 0.00613 KA relative to UGCAUGU. B27 was tested, and the binding signal was 0.0106 KA relative to UGCAUGU. For B28, the binding signal was 0.0052 KA relative to UGCAUGU. With B29 the binding signal was 0.00506 KA relative to UGCAUGU. With B30 the binding signal was 0.00227 KA relative to UGCAUGU. B31 was tested, and the binding signal was 0.0558 KA relative to UGCAUGU.
